IFI data for 88 compounds are collected here from ChEMBL document CHEMBL1157539, “Thousands of chemical starting points for antimalarial lead identification” (Nature, 2010).

Structures are written as SMILES. Over roughly 13,000 compounds, “IFI” has its median near 4; the highest 2% begin near 17. This is one part of the list.

This test in a line: GSK_TCMDC: Inhibition Frequency Index (IFI). The number of non-kinase HTS assays where a compound showed > 50 % inhibition, expressed as a percentage of the number of such assays in which the compound was tested (-0 is zero). It is filed as functional.
As to `Cc1cc2c(cc1C(F)(F)F)N(C(=O)Nc1cccc(C(=O)NC3CCN(Cc4ccccc4)CC3)c1)CC2`, the IFI was determined as 2.17%.

In turn, `N#Cc1ccc(-c2ccc(C(=O)NCCCCN3CCC(c4nc5ccccc5[nH]4)CC3)cc2)cc1` came in with an IFI of -0%.

Compound `Cn1nc(C(=O)N2CCC(c3[nH]ncc3Cc3ccccc3)CC2)c2ccccc2c1=O` registered an IFI of -0%. Then `COc1ccc(Nc2nc(NCc3cccnc3)cc(-c3ccc(OC)cc3)n2)cc1`, with 4.69%; and `CCC(C)(C)c1ccc2nc(N)nc(N)c2c1C`, with 4.44%.

`COc1ccc(-c2cc(Nc3nc(-c4cccc(Cl)c4)nc4ccccc34)ccn2)cc1` displayed an IFI of 2.75%. As to `O=C(/C=C/c1ccc(Cl)c(Cl)c1)NCCCCCN1CC[C@H](NC(=O)c2ccc3c(c2)OCO3)C1`, the IFI was 2.08%. Then `Cc1ccc2c(c1)nc(N)n2C[C@H](O)c1ccccc1`, with 1.32%; and `Cc1cc(N2CCCC2)nc(Nc2ccc(NC(=O)Nc3ccccc3)cc2)n1`, with 16.2%; and `Cc1ccc(S(=O)(=O)Nc2ccc(Nc3nccc(Nc4cccc5[nH]ncc45)n3)cc2)cc1`, with 11.4%. Then `O=C(NCC1CCN(CCN2CCC(c3cn(CCO)c4ccccc34)CC2)CC1)c1ccc(-c2ccc(C(F)(F)F)cc2)cc1`, with 10%; and `CCCCNc1ccc(C(=O)NC2CCN(C[C@H](O)c3ccnc4ccc(OC)cc34)CC2)cc1`, with 1.47%. Consider `CC(C)CNCc1ccc(OCc2cccc(COc3ccc(CNCC(C)C)cc3I)c2)c(I)c1`, for which the IFI was 8.89%.

Turning to `CS(=O)(=O)NCCCNCc1cccc(-c2cccc(-c3nc4cc(C(F)(F)F)ccc4[nH]3)c2)c1`, the IFI was 0.99%.

`Cc1ccccc1Oc1ccc(Nc2ccnc(Nc3cccc(C(N)=O)c3)n2)cc1C(F)(F)F` had an IFI of 7.19%.

As to `CC(C)N1CCC(N(Cc2ccc(-c3ccc(C(F)(F)F)cc3)cc2)C(=O)Cn2c(SCc3cccc(F)c3F)cc(=O)c3c2CCC3)CC1`, the IFI was determined as 9.66%.

Compound `Cc1nc2ccccc2c(O)c1-c1ccc(Cl)cc1` yielded an IFI of -0%. `CN(C)CCNCc1ncsc1-c1ccc2c(Nc3ccc(F)cc3Cl)ccnc2c1`: the IFI was found to be 1.5%. `COc1ccc(-c2cnc(N)c(-c3nc4cc(Br)ccc4[nH]3)c2)cc1`: the IFI is -0%. Take `N=c1c2c(n(Cc3cccc(Cl)c3)c3c1CCC3)CCCC2`: the IFI was 2.11%. On to `Cn1cncc1C(=O)Nc1ccc(-c2cccc(-c3nc4cc(F)ccc4[nH]3)c2)cc1`, for which the IFI was determined as 4.42%. Then `Nc1ccncc1C(=O)NCCCCN1CCN(c2nsc3ccccc23)CC1`, with 2.42%. `COc1cc(NC(=O)/C=C/c2cc(F)cc(F)c2F)cc(OCCN2CCCCC2)c1`: the IFI came out at 4.29%. Then `c1ccc2c(NCCCCCCCCNc3ccnc4ccccc34)ccnc2c1`, with 8.27%; and `CCCCN(Cc1cc(Cl)c(OC)c(OC)c1)c1ccc(C(O)(C(F)(F)F)C(F)(F)F)cc1`, with 5.11%; and `COc1ccc(CNc2ccnc3cc(OC)ccc23)cc1`, with 0.72%. Then `COc1ccc2c(=NN=Cc3cccc(Cl)c3)cc(C)[nH]c2c1`, with 2.8%; and `Cc1noc(C)c1-c1cccc(CNCc2ccc(-c3ccc(-c4nc5cc(F)ccc5[nH]4)cc3)cc2)c1`, with 8.91%; and `O=C(/C=C/c1ccc(Cl)c(Cl)c1)NC1CCC(CN2CCC(c3nc4ccccc4s3)CC2)CC1` (stereo not drawn), with 3.57%. Then `O=C1C(=Cc2cc(Cc3ccccc3)ccc2O)SC(=S)N1Cc1ccccc1`, with 2.31%; and `Cc1onc(-c2c(F)cccc2Cl)c1C(=O)Nc1ccccc1I`, with 4.11%. For `CCCNCc1ccc(-c2ccc(CN(Cc3ccc4c(c3)OCO4)C(=O)Cc3cccnc3)cc2)nc1`, the IFI was determined as 4.86%. The compound `C=CCNC(=O)C(C)c1ccc2cc(OC)ccc2c1` (stereo not drawn) registered an IFI of -0%.

In the case of `CN1N=C2c3ccccc3CCC2C1c1ccc(C#N)cc1` (stereo not drawn), the IFI turned out to be 0.67%.

For `c1cncc(CNc2ncc(-c3ccsc3)c(-c3nccs3)n2)c1`, the IFI came to 3.33%.

As for `CCN(CC)CCCCOc1ccc2c(c1)C(=O)c1cc(OCCCCN(CC)CC)ccc1-2`, the IFI is 2.21%.

Turning to `O=C(C=Cc1ccc(Cl)c(Cl)c1)NCCCCCN1CCC(CCNC(=O)/C=C/c2ccccc2)CC1`, the IFI turned out to be 8.27%. In turn, `O=C(Nc1ccc(Cl)cc1)Nc1cccc(-c2cccc(-c3nc4cc(F)ccc4[nH]3)c2)c1` gave an IFI of 7.07%. With `COC(=O)C(C)NCC(=O)c1ccccc1` (stereo not drawn), the IFI was 1.41%.

Regarding `CCCNC(=O)c1cncc(-c2ccc(CNC(CC)c3ccccc3)cc2)c1` (stereo not drawn), the IFI stood at 1.64%. The figure for `O=C(NC1CCCCC1)c1ccc(O)c(-c2cccc(C(F)(F)F)c2)c1` is 2.19%; for `CS(=O)(=O)c1ccc(-c2cnc(N)c(-c3ccc(O)cc3)c2)cc1` it is 1.67%. Turning to `O=[N+]([O-])c1ccc(/C=N/Nc2cc(-c3ccccc3)nc3ccccc23)o1`, the IFI amounted to 7.86%. In turn, `COc1ccc(N(C)Cc2cnc3nc(N)nc(N)c3n2)cc1` yielded an IFI of 1.47%. `COc1cccc(-c2cc(C(F)(F)F)n3ncc(C(=O)Nc4cc(C)ccc4O)c3n2)c1`: the IFI came to 0.9%. Then `Cc1cc(NC2CCCC2)nc(Nc2ccccc2)n1`, with 10.9%. Then `CN1CCc2cc(NC(=O)c3cc4ccccc4s3)cc(-c3ccccc3)c2CC1`, with 7.46%. As to `CCCNC(=O)C1Cc2cc(OC)c(OC)cc2C2(N1)C(=O)N(Cc1cccc(OC)c1)c1ccccc12` (stereo not drawn), the IFI is -0%. The figure for `COc1ccc(CNc2nccc3ccc(-c4ccc5nccn5c4)cc23)cc1` is 1.33%; for `CC(C)CCCC(C)(C)NC[C@@H](O)[C@H](Cc1ccccc1)NC(=O)c1cc(NC(C)C)cc(N2CCCCS2(=O)=O)c1` it is 7.75%; for `Cc1[nH]c(C)c(-c2ccc(C#Cc3ccc(F)cc3F)cc2)c(=O)c1Br` it is 2.7%. Compound `Cc1cccc2nc(-c3cccc(-c4cccc(NC(=O)C(C)CN(C)C)c4)c3)[nH]c12` (stereo not drawn) gave an IFI of 3.6%.

`Cc1cccc2nc(-c3ccc(-c4ccc(CN5CCC(CCN6CCCCC6)CC5)cc4)cc3)[nH]c12` showed an IFI of 6.85%.

`CC(C)(C)c1ccc(OC(=O)c2ccc(NC(=O)N[C@@H](Cc3ccc(O)cc3)C(=O)NC3CCN(Cc4ccc(O)cc4)C3)cc2)cc1` (stereo partly drawn) gave an IFI of 8.16%. For the compound `Cn1c(=N)n(CC(=O)N2CCc3ccc(Cl)cc3C2Cc2ccc(Cl)c(Cl)c2)c2ccccc21` (stereo not drawn), the IFI worked out at 11.2%. Then `O=C(NCc1cccc2ccccc12)C(c1cc2ccccc2o1)N1CCN(C(c2ccccc2)c2ccccc2)CC1` (stereo not drawn), with 1.45%.

For `COc1ccc(C(=O)CCC(=O)N(Cc2ccc(-c3ccc(CNCCc4ccc(S(C)(=O)=O)cc4)cn3)cc2)C(C)CN(C)C)cc1F` (stereo not drawn), the IFI is 4.17%. `COc1ccc2nccc([C@@H](O)CN3CCC(NCc4ccc5c(c4)N(C)C(=O)CO5)CC3)c2c1` registered an IFI of 0.74%. The figure for `COc1ccc2nccc([C@@H](O)CN3CCC(NC(=O)/C=C/c4ccnc5ccccc45)CC3)c2c1` is 1.47%; for `Fc1ccc2[nH]c3c(NCCCN4CCOCC4)ncnc3c2c1` it is 0%; for `Cc1cccc2nc(-c3ccc(-c4cccc(NC(=O)C(C)CN5CCN(C)CC5)c4)cc3)[nH]c12` (stereo not drawn) it is 4.63%.

For `Cc1[nH]c(C)c(-c2ccc(Oc3ccc(Cl)cc3)cc2)c(=O)c1C`, the IFI came to 11.6%. The figure for `CN1CCCC(CN2CCN(Cc3cccc(-c4csc(-c5nc6ccccc6[nH]5)c4)c3)CC2)C1` (stereo not drawn) is 5.63%; for `Cc1cc(NC(=O)c2ccsc2)ccc1OC1CCN(Cc2ccc(F)cc2)CC1` it is 1.61%.

In turn, `CN1CCN(Cc2cc(NC(=O)c3ccc(-c4ccc(Cl)cc4Cl)cc3)ccc2-c2ccccc2)CC1` displayed an IFI of 7.27%. Then `CCN1CCC(N(Cc2ccc(-c3ccc(C(F)(F)F)cc3)cc2)C(=O)Cn2c(CCc3cccc(F)c3F)cc(=O)c3cn(C)nc32)CC1`, with 5.67%; and `COc1cc2nc(N3CCC(CNC(=O)/C=C/c4ccccc4F)CC3)nc(N)c2cc1OC`, with 3.51%. The figure for `O=C(O)c1ccc(-c2cnc3ccc(NC4CCC(O)CC4)nn23)cc1` (stereo not drawn) is 1.53%. The figure for `CC1CN(S(=O)(=O)c2ccc(NC(=O)c3cc(-c4ccccc4O)n[nH]3)cc2)CC(C)O1` (stereo not drawn) is 4.41%; for `COc1ccc(CNCCCCCNCc2ccc(Cl)c(Cl)c2)cc1Cl` it is 7.09%; for `CC[C@]1(C)C[C@@H](NC(=O)NC(=O)c2ccc(OC)cc2)[C@]2(C)[C@H](C)CC[C@]3(CCC(=O)[C@H]32)[C@@H](C)[C@@H]1OC(=O)NC(=O)c1ccc(OC)cc1` it is 0%. With `CS(=O)(=O)CCNC(=O)c1ccc(-c2cc3c(Nc4ccc5c(cnn5Cc5ccccc5)c4)ncnc3cn2)o1`, the IFI came to 1.42%. The figure for `CCCCCCNc1cc(C)nc(NC(=N)Nc2cccc(C(F)(F)F)c2)n1` is 7.25%; for `O=C(Nc1ccc(-c2cccc(CN3CCC(O)CC3)c2)cc1)c1cccc(Cl)c1` it is 6.67%; for `Cc1noc(C)c1C(=O)N1CCc2cc3nccc(N4CCN5CCC[C@H]5C4)c3cc21` it is 1.49%. Compound `CC(C)CCn1c(Sc2ccc([N+](=O)[O-])cc2C(F)(F)F)nnc1-c1ccccc1Cl` returned an IFI of 3.52%. Compound `Cc1cc(OCC2CCCO2)c2cc(NC(=O)C(=O)Nc3ccc4nc(C)cc(OCC5CCCO5)c4c3)ccc2n1` (stereo not drawn) came in with an IFI of -0%. For `CC(C)CNc1c2c(nc3cnn(-c4c5c(nc6cn[nH]c46)CCCC5)c13)CCCC2`, the IFI was -0%. The figure for `Cc1cc(NC(=O)Nc2cccc(C#N)c2)c2ccccc2n1` is 1.54%; for `Cc1onc(-c2ccccc2)c1-c1nc(NC2CCCC(C)C2)no1` (stereo not drawn) it is 3.08%; for `Cc1nnc2c(NC(=O)NC3CCCC3)cc3cc(-c4ccc(CN5CCCCC5)cc4)ccc3n12` it is 10%. Compound `O=C(Nc1ccc(Cl)c(C(F)(F)F)c1)N[C@H]1CCN(CCCCCNC(=O)C2CC2c2ccc(Cl)c(Cl)c2)C1` (stereo partly drawn) came in with an IFI of 12.2%. The figure for `CCOc1cc(C2C(C(=O)OC(C)C)=C(C)NC3=C2C(=O)CC(c2ccc(Cl)cc2)C3)ccc1OC(C)=O` (stereo not drawn) is 4.76%; for `CCN(CC)CCN(Cc1ccc(-c2ccc(C(F)(F)F)cc2)cc1)C(=O)Cn1c(SCc2ccc(F)c(F)c2F)nc(=O)c2c1CCC2` it is 11.4%. The figure for `CS(=O)(=O)N1CC2(CCN(CCC(NC(=S)Nc3ccccc3)c3ccc(Cl)c(Cl)c3)CC2)c2ccccc21` (stereo not drawn) is 4.14%; for `COc1cc2nc(NCCn3cccn3)nc(NCCc3ccccc3)c2cc1OC` it is 4.23%. In turn, `COC(=O)c1cccc(NC(=O)NC2CCN(c3ccnc(Nc4cc(OC)c(OC)c(OC)c4)n3)C2)c1` (stereo not drawn) registered an IFI of 4.55%. The figure for `COc1ccc(CNC2CCN(C)CC2)cc1-c1ccc(S(=O)(=O)NCCc2ccccn2)c(C)c1` is 2.97%.
